Results published in the supplement of paper PMC10126150.
Values marked as one replicate rest on one cluster of the flow cell; about a third of the high ones do not repeat.
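Note: ATP exposure 15 min at 22 °C before imaging.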

Each sequence was assayed on ATP (assay: switch fluorescence ratio, 500 uM ATP over buffer (Cy3 cluster intensity, sum of 5 cycles each) (fold (ratio)); higher = stronger signal-on switching upon ATP binding; sequences stand for … in TCGTCGGCAGCGTCAGATGTGTATAAGAGACAGTTTTTTTTTTTTTTTTTTTTTTTTT…TC). Conditions: aptamer strand: ATP DNA aptamer (quencher-CACCTGGGGGAGTATTGCGGAGGAAGG + anchor), 100 nM annealed; ATP concentration: 500 uM; one replicate.
Method in brief: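 Five buffer/ATP imaging cycles were run on Cy3-labelled switching-strand clusters on a modified Illumina MiSeq flow-cell, with NaOH stripping and re-annealing between cycles. In each cycle, clusters annealed to 100 nM quencher-labelled ATP aptamer were imaged in selection buffer, then after 15 min with 500 uM ATP at 22 °C. Per cluster, the fluorescence ratio is summed target-cycle over summed buffer-cycle Cy3 intensity, averaged per switch-domain sequence. Only clusters within 100-1000 RFU were kept.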
Work on CGTCCGGAGA yielded a switch fluorescence ratio of 1.57. Work on CCGTATAGGC yielded a switch fluorescence ratio of 1.23. For ATTAGACGCT, the switch fluorescence ratio was 1.04. AACAGGTCGG was tested, and the switch fluorescence ratio was 0.985. Sequence GCGTGCACAA has a switch fluorescence ratio of 1.05. For AGCGCCGGGT, the switch fluorescence ratio was 1.04. Work on ACCTCGTGTA yielded a switch fluorescence ratio of 0.993. GCTACGGAAG gave a switch fluorescence ratio of 1.14. ATAATGCACT showed a switch fluorescence ratio of 1.12. CGCTAGGATC was tested, and the switch fluorescence ratio was 1.03. In the case of TACTTCGGTG, the switch fluorescence ratio was 1.02. Work on GCCGGATATA yielded a switch fluorescence ratio of 1. In the case of CTAGGGATCG, the switch fluorescence ratio was 1.02. TTTCGTCACA showed a switch fluorescence ratio of 1.53. With CGAACGTCCC the switch fluorescence ratio was 1.73. Work on CGGTTTCGA yielded a switch fluorescence ratio of 0.969. GTCACGAAGA gave a switch fluorescence ratio of 1.03. TCTCAAAAGT showed a switch fluorescence ratio of 0.987. For GCTTGGCATT, the switch fluorescence ratio was 0.992. TCCTGGACGG gave a switch fluorescence ratio of 1.02. For ATCCCTTTTG, the switch fluorescence ratio was 0.964. With ACGGCGATGG the switch fluorescence ratio was 1.1. In the case of TGGGCGCGCG, the switch fluorescence ratio was 1. For ACAGAATGAG, the switch fluorescence ratio was 0.996. With ATCATATTGA the switch fluorescence ratio was 1. Work on AAGCTCTCTA yielded a switch fluorescence ratio of 1.01. With GACGATTAAG the switch fluorescence ratio was 1.01. AATTGTCGAG showed a switch fluorescence ratio of 1. With GGATCCGGTC the switch fluorescence ratio was 0.976. TAGATTGCTG showed a switch fluorescence ratio of 1.01. Work on TGTAATTAAG yielded a switch fluorescence ratio of 0.995. Sequence TTGTGCTC has a switch fluorescence ratio of 0.973. Work on TAGTTCCACT yielded a switch fluorescence ratio of 0.938. GAAGCACAGG gave a switch fluorescence ratio of 1.68. For ATGGGTCTGG, the switch fluorescence ratio was 0.997. Work on TCAATATCGG yielded a switch fluorescence ratio of 1.01. For CACGACAAGA, the switch fluorescence ratio was 1.58. AGTAACGGAG was tested, and the switch fluorescence ratio was 1.03. Work on GGTCACTTAC yielded a switch fluorescence ratio of 1.17. GGAACGACTA was tested, and the switch fluorescence ratio was 1.03. AATAGCGCAT showed a switch fluorescence ratio of 1.02. In the case of GGGGTACAGA, the switch fluorescence ratio was 1.13. With ATATTCGAAG the switch fluorescence ratio was 0.987. Work on CGGACAGGTG yielded a switch fluorescence ratio of 1.64. CGCTCATTGT showed a switch fluorescence ratio of 1.03. CTCAACGTGT showed a switch fluorescence ratio of 1.05. In the case of TTGAGTACCT, the switch fluorescence ratio was 1.1. Sequence CGCTCTAAGG has a switch fluorescence ratio of 1.05. Work on ACTGAATAGT yielded a switch fluorescence ratio of 1.02. Sequence CCATTCAATC has a switch fluorescence ratio of 1.28. Sequence GTACACTCAC has a switch fluorescence ratio of 1.33. With TCGACGCGGA the switch fluorescence ratio was 3.27. In the case of TGTTATAGAA, the switch fluorescence ratio was 0.997. Work on TCCCTCTGAA yielded a switch fluorescence ratio of 1.13. TATAAGTTCA gave a switch fluorescence ratio of 1.01. Work on CGCGGTACCT yielded a switch fluorescence ratio of 1.09. CTTGTGCCGG showed a switch fluorescence ratio of 1.02. With TAGGTGAAG the switch fluorescence ratio was 0.966. CGATTCCGTG showed a switch fluorescence ratio of 1.04. GACAGCGCCG was tested, and the switch fluorescence ratio was 0.994. In the case of CAAGTGAGTG, the switch fluorescence ratio was 0.979. GTGGGACGGA showed a switch fluorescence ratio of 1.21. Work on AATAGCTTA yielded a switch fluorescence ratio of 1.06. CTTCCAGCAT showed a switch fluorescence ratio of 3.97. With ACGCGGTATG the switch fluorescence ratio was 0.972. CCAGGACGAG gave a switch fluorescence ratio of 1.01. TCTGGGCAG was tested, and the switch fluorescence ratio was 1.06. Sequence TTCGCCTCAC has a switch fluorescence ratio of 0.97. In the case of ATCCCGTTTG, the switch fluorescence ratio was 1.07. Work on TTAAAAGGGC yielded a switch fluorescence ratio of 1.02. Sequence TTTGTCACTC has a switch fluorescence ratio of 1.05. In the case of TGTCTACTCG, the switch fluorescence ratio was 1.01. GGGTCGAACC was tested, and the switch fluorescence ratio was 1.02. Work on TAGTTGCTGC yielded a switch fluorescence ratio of 0.977. Sequence TAGAGGAGGT has a switch fluorescence ratio of 0.994. In the case of CGACTGGGTC, the switch fluorescence ratio was 0.985. TTTCATTAT showed a switch fluorescence ratio of 0.988. GGCACTTTAC gave a switch fluorescence ratio of 1.52. Work on TGGGACCTAT yielded a switch fluorescence ratio of 0.992. In the case of CGTTAGAGA, the switch fluorescence ratio was 0.964. For ATGCTCAGGA, the switch fluorescence ratio was 1.04. For AGTCATCTGG, the switch fluorescence ratio was 1. Work on GAATTAACTT yielded a switch fluorescence ratio of 1.05. TCGCGCCCCC gave a switch fluorescence ratio of 1.87. For GCTGATTTCC, the switch fluorescence ratio was 1.06. CGTACACCT gave a switch fluorescence ratio of 1.16. In the case of CCCATGCGAT, the switch fluorescence ratio was 2.52. AACTTTTGTA gave a switch fluorescence ratio of 0.974. In the case of GTTTGGTCCC, the switch fluorescence ratio was 0.964. Sequence AGCTCCACAG has a switch fluorescence ratio of 1.14. In the case of TTGCGGCATT, the switch fluorescence ratio was 0.993. With TTATGTCATT the switch fluorescence ratio was 1.02. In the case of TAGCAATCTT, the switch fluorescence ratio was 1.89. With ATACCGTCGC the switch fluorescence ratio was 1.07. Sequence CACGTCTATG has a switch fluorescence ratio of 1.05. Work on TGTTTAGTGG yielded a switch fluorescence ratio of 1. CGTCCCAATG gave a switch fluorescence ratio of 4.42. Sequence AGGATCAGGG has a switch fluorescence ratio of 0.973. Work on TTCGGGCACC yielded a switch fluorescence ratio of 1.01. Work on GCTGGCGGAG yielded a switch fluorescence ratio of 0.972. AGCACATCAA showed a switch fluorescence ratio of 0.993. GATGCGGAC showed a switch fluorescence ratio of 1.78. For ACCTAATGG, the switch fluorescence ratio was 0.955. In the case of GTGTCGATTG, the switch fluorescence ratio was 0.968. For TGATTGTGTC, the switch fluorescence ratio was 1.05. AAGTAGTGTT was tested, and the switch fluorescence ratio was 1.02. AGTGGAAAGC was tested, and the switch fluorescence ratio was 1.03. With AGGCGAGCTT the switch fluorescence ratio was 0.953. Sequence AGGCATGTCG has a switch fluorescence ratio of 1.1. For CAGACCCTTA, the switch fluorescence ratio was 1.03. Work on TGCCCGAGCC yielded a switch fluorescence ratio of 1.13. CAAGGAGAGA gave a switch fluorescence ratio of 0.976. GAGCTTCCTG gave a switch fluorescence ratio of 1.38. In the case of ATAAAATCTC, the switch fluorescence ratio was 1.01. Sequence TCAGGTTTGA has a switch fluorescence ratio of 1.04. For CGGTTGGACC, the switch fluorescence ratio was 0.997. In the case of AACCTACGT, the switch fluorescence ratio was 1.59. Work on ATGAACGGGT yielded a switch fluorescence ratio of 0.973. TGCGCGACAA showed a switch fluorescence ratio of 1.21. With GATGTCCAG the switch fluorescence ratio was 0.991. GCATTCACGC was tested, and the switch fluorescence ratio was 1.07. For GCATAACTAA, the switch fluorescence ratio was 0.997. AAAAATTACA showed a switch fluorescence ratio of 1.03. CGGGTCCTAG gave a switch fluorescence ratio of 1.03. GTGGGCCAAT showed a switch fluorescence ratio of 0.977. In the case of TGGCTAGGTA, the switch fluorescence ratio was 1.03. Work on GATAGCATCT yielded a switch fluorescence ratio of 1.01. Work on TATGCATTTA yielded a switch fluorescence ratio of 1.06. With GAACGCCGTG the switch fluorescence ratio was 0.982. TAGTGAGATC showed a switch fluorescence ratio of 1.06. TATGGATGGT was tested, and the switch fluorescence ratio was 0.98. Work on ATTGAAAGGG yielded a switch fluorescence ratio of 0.998. GAGAATCACC was tested, and the switch fluorescence ratio was 1.03. AGTCGGTTTG gave a switch fluorescence ratio of 0.965. In the case of GTGGGCATTG, the switch fluorescence ratio was 0.972. ATTTGACAAA showed a switch fluorescence ratio of 1.01. TCCAGTCAGT was tested, and the switch fluorescence ratio was 0.994. Sequence ACGTTGTGGC has a switch fluorescence ratio of 1.03. Sequence AGAGCCGGTC has a switch fluorescence ratio of 0.955. In the case of CTGACACATG, the switch fluorescence ratio was 1.01. GCACGCAGCT was tested, and the switch fluorescence ratio was 1.1. For TATGTGGAAA, the switch fluorescence ratio was 1.02. Sequence TCAATTCGGT has a switch fluorescence ratio of 1.03. ATGAAGGTCC showed a switch fluorescence ratio of 0.984. TGGCCAATCT gave a switch fluorescence ratio of 1.04. Work on ATGCAAAGTT yielded a switch fluorescence ratio of 0.939. ATCCGGGTTA was tested, and the switch fluorescence ratio was 1.01. TAAAACTC gave a switch fluorescence ratio of 0.971. In the case of TGAGTACAGG, the switch fluorescence ratio was 1.02. For TATTTGAAAC, the switch fluorescence ratio was 0.981. AACTTCGCAG was tested, and the switch fluorescence ratio was 1.98. In the case of GATTAGCCTA, the switch fluorescence ratio was 0.963. In the case of TATTTCTTCT, the switch fluorescence ratio was 1.01. GTGACCCATC showed a switch fluorescence ratio of 1.05. In the case of ACAGGGTAGG, the switch fluorescence ratio was 0.989. AATGCAGGTT gave a switch fluorescence ratio of 0.99. In the case of TGCAGTTTGC, the switch fluorescence ratio was 1.08.
